Measured values published in the supplement of paper PMC10126150.
Values marked as one replicate rest on one cluster of the flow cell; about a third of the high ones do not repeat.

Each sequence was assayed on ATP (assay: switch fluorescence ratio, 500 uM ATP over buffer (Cy3 cluster intensity, sum of 5 cycles each) (fold (ratio)); higher = stronger signal-on switching upon ATP binding; sequences stand for … in TCGTCGGCAGCGTCAGATGTGTATAAGAGACAGTTTTTTTTTTTTTTTTTTTTTTTTT…TC). Conditions: aptamer strand: ATP DNA aptamer (quencher-CACCTGGGGGAGTATTGCGGAGGAAGG + anchor), 100 nM annealed; ATP concentration: 500 uM; one replicate.
Procedure, shortened: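 Per cluster, summed Cy3 intensity from the target cycles was divided by that from the buffer cycles to give the fluorescence ratio, then averaged per switch-domain sequence. Clusters outside 100-1000 RFU were excluded. The Cy3-labelled switching-strand clusters, on a modified Illumina MiSeq flow-cell, were annealed to 100 nM quencher-labelled ATP aptamer and imaged in selection buffer, then after 15 min with 500 uM ATP at 22 °C, for five cycles with NaOH stripping and re-annealing between them.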
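Further: ATP exposure 15 min at 22 °C before imaging.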

Row | Sequence | switch fluorescence ratio
1 | GTTCAAGGAG | 1
2 | GGCTTCTGGT | 1.06
3 | ATTTGTCCTA | 0.991
4 | TAGGGATGGA | 0.968
5 | CAGCGGGTAG | 1.02
6 | GAAAAGCGGG | 0.969
7 | TAAGTCCCGT | 0.999
8 | GATGTGCGAT | 0.952
9 | CAGTGTCGAA | 1.03
10 | TTTCCCCGTG | 1.22
11 | CGTTAACTGG | 1.03
12 | TGCCTTGGTA | 1.03
13 | AAGGCTATTG | 0.989
14 | GGCTTAATGC | 0.986
15 | AAACGGCTTA | 1.04
16 | GACCAACGTG | 0.995
17 | AAAAGGAGAT | 0.998
18 | CCATTTGGTG | 2.65
19 | AAACTGGCCT | 1.04
20 | TTCTTCAAGG | 0.978
21 | AGTATGGG | 0.98
22 | CTTTTAGGTC | 0.983
23 | ATCGGAGAGA | 1.01
24 | GGTCACATTT | 1.01
25 | GGGTCGCCAC | 0.996
26 | GAGTACATCG | 0.987

Row | Sequence | switch fluorescence ratio
27 | CTGTGGCACA | 0.999
28 | TCGCTATGCG | 0.987
29 | TAAGCCGGCT | 1.21
30 | TGATATCGCG | 0.943
31 | GACTTGACCA | 1.03
32 | GACACAAGAT | 1.18
33 | ACATCTGCTT | 1.03
34 | TAAAGTAGTG | 1.01
35 | CTAATTTGTT | 0.984
36 | AAATGGGCCA | 1.04
37 | TTGTGATCAC | 1.01
38 | ATAGGCCATG | 0.985
39 | TTAGACTCCC | 1.32
40 | ACTCAGCGTG | 1.06
41 | CTATGGTACT | 1.02
42 | CCCGTGAGGA | 1.02
43 | AGGATGATAG | 1.02
44 | AGGCTTATT | 0.955
45 | CGTACTAGGC | 1.03
46 | GTTTGGGCAA | 1.04
47 | TCATTGATTA | 1
48 | GGAATGTGCT | 0.973
49 | TATAATGACG | 0.888
50 | TCCTCACCGG | 1.08
51 | TACGTTGTAG | 1
52 | CGCTGCGTCC | 1.09

Row | Sequence | switch fluorescence ratio
53 | GCCATTTGCA | 1
54 | AGGGTCCGGC | 1.04
55 | ATCCTCACGG | 1.13
56 | TTTCTCGCC | 1.62
57 | TATACGAGTG | 0.965
58 | AAACTGTCG | 0.973
59 | TAGTTCAGCA | 1.01
60 | TAGCGTGTGT | 1.02
61 | GAGAACCAGG | 1.18
62 | ACAGCGCCAT | 0.97
63 | TATGCATAAT | 0.989
64 | TCAATTCCGG | 1.03
65 | AATTGACTTG | 1.05
66 | GATGATATTT | 0.991
67 | AGGGTTTGTA | 0.93
68 | CTAAGGGCCA | 0.979
69 | ATTATCGTAT | 1.03
70 | TCCGGAGA | 1.55
71 | TTGCGGTACT | 2.86
72 | AGTATCGGT | 0.954
73 | ATCCAACGA | 0.962
74 | GCCTTCCGAG | 3.41
75 | TTGTAGCAGA | 1.36
76 | CACGAATCTT | 1.03
77 | GCATAGTCGG | 1.02
78 | TAGGAGGAGA | 1.01

Row | Sequence | switch fluorescence ratio
79 | TTGAAATAAG | 1.01
80 | GGATAACATT | 0.992
81 | TTGGTGTTT | 1.02
82 | GGGGAAATCT | 1.02
83 | TAATTTCATA | 0.987
84 | GTTCTAGAGA | 0.975
85 | GCAGCCAGTG | 1.11
86 | GGGGTGTGTA | 1.01
87 | GATGCTCGAC | 0.995
88 | CGTGTCACGG | 0.996
89 | CAGCAGCTG | 1.05
90 | TCGCCTATGC | 1.83
91 | GAGATACCCC | 1.08
92 | GCCTAGTAAC | 0.957
93 | CAGGAGAGTT | 0.987
94 | GCTACTAGTC | 1
95 | AAATCCGTAT | 1.03
96 | TTACAGAGT | 0.955
97 | TTACTCTATG | 1.06
98 | TGCCGTGGAG | 1.03
99 | ATTCGGGATC | 0.996
100 | AAGGTAAGTG | 0.989
101 | AATGAATCTT | 1
102 | CCCTTACTGC | 1.23
103 | GGGCCTAGGG | 0.956
104 | TACTCAGATC | 1.02

Row | Sequence | switch fluorescence ratio
105 | TAGAACGATT | 0.998
106 | AGTCTTGGTT | 1.01
107 | CAGCTGGGTC | 0.974
108 | CCAACTTACG | 1.4
109 | CGTGCGCTCC | 1.63
110 | GTCGGGCACA | 1.05
111 | ATCCAACGGT | 1.07
112 | TCGGGCTTTC | 1.05
113 | GCGAGAATTG | 1.06
114 | CCCAGCTACT | 2.46
115 | AAGGGAGTAG | 0.963
116 | GCGGGTAACT | 0.966
117 | TCCCCAGC | 2.26
118 | GTAAACATAG | 1.04
119 | GTAATGCAGA | 1.02
120 | TCTGACGGGA | 2.19
121 | ATCCATCTTG | 0.956
122 | GCGTCTACTG | 0.989
123 | AACGCCGCAC | 3.21
124 | CTAGCGATAT | 3.15
125 | GGGACAGGAA | 0.984
126 | AAGTTGGACC | 1
127 | CAGAACGATC | 0.996
128 | GGCTACCCAG | 1.04
129 | GCTCTTTTCA | 0.998
130 | AGCCGTATTG | 1.04

Row | Sequence | switch fluorescence ratio
131 | TGTGGATCC | 0.978
132 | TTTGTTATAA | 1.01
133 | ACTTTCGGGT | 1.01
134 | ATACTGAGC | 1.03
135 | TTAGACGTGG | 1.04
136 | AGCGATGAAG | 1.01
137 | CGGTTATGAT | 0.971
138 | TTCTACGAAA | 1.27
139 | GAGCGGTGTC | 0.978
140 | AGATACAGAT | 1
141 | AAAAGGTG | 1.12
142 | TAATGAAGTA | 1.03
143 | TCCCGGAAGC | 2.43
144 | GGGTCTTCAG | 0.998
145 | CCAAAAAGGA | 0.947
146 | GCCATCTCGT | 1.02
147 | TAAAAGGTTA | 1.01
148 | TGGTCAAGTT | 1.02
149 | CCTCAACCAG | 1.88
150 | TACCGTAGGT | 0.976
151 | GAGCCAGAAG | 1.01
152 | ATGGGCTAAT | 1.01
153 | GTCAAGAAAT | 1.03
154 | AGCTTGTATC | 1
155 | AGAGTAACGA | 1.01
156 | ATACCATGTA | 1.04

Row | Sequence | switch fluorescence ratio
157 | CGCATTGATT | 1.03
158 | AGGAATTGAC | 0.997
159 | GCTGACTGTG | 1.01
160 | TTACCGCCGT | 0.967
161 | GACTAGCGGA | 1.04
162 | AATGTGTAAT | 1.13
163 | CTTGCGGTGT | 1.02
164 | CAATGACGTA | 0.991
165 | CCCGTTTTGG | 0.961
166 | CCGGTTCGAA | 1
167 | GAACCGAAGG | 0.906
168 | CGATCGCAAA | 4.77
169 | CTCCTTAGCA | 1.26
170 | GATAACGGTT | 1.02
171 | GTCATAAATT | 1.02
172 | TTGTGAAACG | 0.995
173 | ACGGTGCGTC | 1.01
174 | AGCCTCCGAA | 4.17
175 | ACATGCCTCG | 1.09
176 | ATGGTGGAGT | 1.02
177 | GGTAAAGCCT | 1.06
178 | TTGCGAATTA | 1.02
179 | CACTTATAAG | 1.01
180 | AGCCTTATAA | 0.98
181 | GCACACATGA | 1.01
182 | TTAATGAGCA | 1.02

Row | Sequence | switch fluorescence ratio
183 | AACGGAAGTT | 1.03
184 | GGTAATCAAA | 1.04
185 | AAATGACTAT | 0.987
186 | AAAACGTTTT | 0.987
187 | TGATGATAGG | 1
188 | CGCCTCGTA | 1.03
189 | ACGATTGGTC | 0.995
190 | AATAATGGAC | 1.03
191 | AGACACAGAG | 1.01
192 | AAAAGCTTGT | 1.08
193 | TGGATATTCA | 1.01
194 | CGGTATCAGG | 0.986
195 | CGCGTAGGGT | 1.02
196 | TTTAGTCCGT | 0.947
197 | AGGGACGATT | 0.981
198 | AGCAAAAGTG | 1.04
199 | GCTCACTGG | 1.05
200 | GTCGCAAAAT | 1.1
201 | TTCATGCTAG | 1.01
